Out of some 190,000 compounds screened, about 270 (0.14%) were called active. The shares of active, inactive and inconclusive entries below differ from those in the screen.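 The calls were made as follows: active = GTP binding activity at least 20% away from the 100% baseline, either lowered as inhibitor or raised as activator; inconclusive = flagged as likely green fluorescent, judged across all proteins in the well; inactive = the rest.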
Molecular target: GTPase HRas (Homo sapiens) (UniProt P01112)
Test: HRas wt fluorescent GTP binding changes, either direction – biochemical, wildtype, bead-based flow cytometry, multiplex, primary screen (AID 759);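 also: 0% = unlabeled GTP competition control and 100% = no-compound control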
Conditions: GST-Ras wt beads, Bodipy-FL-GTP binding, at 10 µM, actives lie on both sides

UniProt P01112, sequence (P01112 whole entry, looked up): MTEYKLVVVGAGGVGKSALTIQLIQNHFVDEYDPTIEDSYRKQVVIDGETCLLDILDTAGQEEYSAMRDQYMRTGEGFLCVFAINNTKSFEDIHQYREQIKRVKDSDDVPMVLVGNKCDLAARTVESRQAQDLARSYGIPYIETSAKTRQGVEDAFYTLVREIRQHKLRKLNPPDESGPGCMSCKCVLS

GTP binding activity, inactive:
COc1ccc(OCc2ccc(C(=O)NN)cc2)cc1 103%, COc1ccc(OC)c(S(=O)(=O)NC(N)=NCCc2ccccc2OC)c1 95%, Cn1c(N2CCOCC2)nc(-c2ccccc2)c1-c1ccccc1 99%, O=C1/C(=C\c2cccnc2)Sc2ccccc21 90%, CSc1ccccc1NC(=O)c1ccc(Br)o1 97%, COc1ccccc1CCNC(=O)c1cc(-c2ccncc2)nc2ccc(Br)cc12 91%, COc1ccc(-c2nnc3ccc(SCC(=O)Nc4cc(C)on4)nn23)cc1OC 95%, CCOc1ccc(Oc2ccccc2NC(=O)CCNC(C)=O)cc1 103%, CC(=O)c1sc(N/N=C2\CC3CC2C(C)C3(C)C)nc1C (centres undefined) 100%, Cc1ccc(C)c(/C=C(\C(=O)O)c2ccc(S(=O)(=O)N3CCCCC3)s2)c1 96%, CCCC(C)C(=O)Nc1ccc(S(=O)(=O)Nc2nccs2)cc1 (centres undefined) 96%, CCOC(=O)c1nc2sc3c(c2c(=O)n1C(C)C(=O)OCC)CCCC3 (centres undefined) 99%, Cc1cc(NN)nc2ccc(Cl)cc12 95%, CN(CC(=O)O)S(=O)(=O)c1ccc2c(c1)NC(=O)CC(=O)N2 96%, COCCn1c(N)c(N(Cc2ccccc2)C(=O)C2CCCC2)c(=O)[nH]c1=O 101%, CCOC(=O)Cc1csc(NC(=O)c2ccc(S(=O)(=O)N3CCCC3)cc2)n1 103%, CC(C)N1CCC(N2CCN(C3CCCCCC3)CC2CCO)CC1 (centres undefined) 96%, Cc1[nH]c2ccccc2c1CN1CCC(Cc2ccccc2)CC1 98%, O=c1[nH]c2ccccc2c2nc3ccccn3c12 93%, O=C(COC(=O)Cc1ccc(Cl)cc1)Nc1c(F)cccc1F 96%, CN(Cc1ccno1)C(=O)CC1C(=O)NCCN1CC(c1ccccc1)c1ccccc1 (centres undefined) 97%, ClCC1NCC(c2ccccc2Cl)c2c1[nH]c1ccccc21 (centres undefined) 101%, CCOC(=O)C1CCCN(C(=O)/C=C/c2ccc(OC)cc2)C1 (centres undefined) 91%, Cc1ccc(C(=O)NCC(=O)OCC(=O)Nc2ccccc2C#N)s1 96%, COc1ccc2[nH]cc(CCNS(=O)(=O)c3ccccc3)c2c1 98%, CCCc1c(O)nc(SCCN(CC)CC)n(C(=O)c2ccccc2)c1=O 99%, Cc1ccc(S(=O)(=O)N2CCOCC2)cc1NC(=O)COC(=O)c1ccccc1OCc1c(C)noc1C 101%, CCOC(=O)c1sc2nc(C3CC3)cc(-c3ccc(F)cc3)c2c1N 98%, Clc1cnc(N/N=C/c2ccco2)c(Cl)c1 101%, CC(=O)CC(c1ccc([N+](=O)[O-])cc1)c1c(O)c2ccccc2oc1=O (centres undefined) 101%, CCn1c(SCC(=O)O)nnc1-c1cccnc1 98%, CC(CC(=O)O)Nc1ccccc1O (centres undefined) 98%, CC(=O)NNC(=O)CCn1nnc(-c2ccc(Cl)cc2)n1 99%, CS(=O)(=O)N(CC(=O)NCc1ccncc1)c1cc(Cl)ccc1Cl 101%

GTP binding activity, inconclusive:
CC(C)Cn1cc(C(=O)N2CCN(c3ccccn3)CC2)c2c3ccccc3n(C)c2c1=O 110%, COCCCn1c(Cc2csc(Nc3cccc(Cl)c3)n2)nnc1SCC(=O)OC1CCCCC1 94%, COc1ccc(-c2cc(C(F)(F)F)nc(S(=O)(=O)CCCC(=O)Nc3cc(C)on3)n2)cc1OC 91%, COc1ccc(Oc2nnc(C)c3ccccc23)cc1 108%, S=c1[nH]nc(-c2ccc3ccccc3n2)n1-c1cc(Cl)cc(Cl)c1 96%, CCN(CC)S(=O)(=O)c1ccc2oc(C(=O)NC(C)C)c(C)c2c1 105%, O=C(c1cccc(S(=O)(=O)N2CCCC2)c1)c1cccc(S(=O)(=O)N2CCCC2)c1 91%, Clc1ccc(CN=C2Nc3ccccc3CS2)cc1 101%, CCCNC(=S)NC1CC2CCC(C1)N2Cc1ccccc1 (centres undefined) 103%, CC1=C(C(=O)OC(C)C)C(c2ccncc2)n2ncnc2N1 (centres undefined) 90%, CC1(C)CC(=O)C2=C(C1)OC(N)=C(C#N)C21CCC2(CC1)OCCO2 94%, COc1ccc(N(C(=O)c2cccc(OC)c2OC)C2C=CS(=O)(=O)C2)cc1 (centres undefined) 101%, COCCn1c(NC(=S)NC(=O)C2CC2)cc(=O)[nH]c1=O 89%, O=C(NCc1ccc(F)cc1)c1cccc(S(=O)(=O)N2CCCC2)c1 106%, COc1ccc(-c2noc(CN3CCN(c4ccccc4F)CC3)n2)cc1OC 94%, O=C1C=C(NCCc2ccccc2)C2(CCCCC2)O1 97%, O=C1CC(c2ccccc2)CC(O)=C1C=Nc1ccccc1O (centres undefined) 96%, COc1ccc(NC(=O)Cn2c(=O)n(CC(=O)NCc3ccco3)c(=O)c3ccccc32)cc1 105%, CCN(CC)CCNC(=O)CCCCn1c(=S)[nH]c2c([nH]c3ccc(OC)cc32)c1=O 106%, CCOc1ccccc1C1C(C#N)=C(N)Nc2onc(-c3ccccc3)c21 (centres undefined) 104%, Cc1ccc(Oc2c(F)c(F)nc(N3CCCC3)c2F)cc1 91%, CCCNC(=O)Cc1cc(=O)[nH]c(=O)[nH]1 102%, COc1ccc(-c2csc(C3=C(O)CN(CCCN4CCCC4=O)C3=N)n2)cc1OC 85%, CSc1nc2ccccc2n1Cc1cccc(F)c1 95%, O=c1c2cc(N3CCOCC3)ccc2[nH]c(=S)n1Cc1ccco1 107%, c1ccc(-c2cnn3c(-c4ccccc4)c(-c4ccccc4)nc3n2)cc1 116%, Cc1ccc(OCC(=O)N/N=C/C=C/c2ccco2)cc1C 94%, Cn1c(N)c(C(=O)COC(=O)c2cc(-c3ccco3)nc3ccccc23)c(=O)n(C)c1=O 88%, O=C(NCc1cccs1)c1cccnc1C(=O)O 114%, O=C(Nc1ccc2c(c1)OCO2)C1CCCCN1S(=O)(=O)c1ccc(F)cc1 (centres undefined) 105%, C/C(=N/OC(=O)c1ccc(C)cc1)c1ccc(N2C(=O)C3CCCCC3C2=O)cc1 (centres undefined) 100%, CC(C(=O)NCCN1CCOCC1)c1ccc([N+](=O)[O-])cc1 (centres undefined) 104%, COc1ccc(C(CC(=O)NCC(OC)OC)NS(=O)(=O)c2ccc(Cl)cc2)cc1 (centres undefined) 94%, COc1ccc(C(=O)O/N=C2\CCCc3nonc32)cc1 111%, CCc1cccc2c(/C=N/NC(=O)c3cccc(S(=O)(=O)Nc4ccccc4Cl)c3)c[nH]c12 94%, COc1ccc(-c2cc(C(F)(F)F)nc(-n3ccnc3C)n2)cc1 98%, O=C(NC1CC1)C1=C[C@@H](c2ccccc2)C[C@@H](OCCCCO)O1 98%, O=C(NCc1ccccc1)c1cc(S(=O)(=O)N2CCOCC2)ccc1F 115%, CCOC(=O)CCCCC(=O)c1[nH]c(=O)[nH]c1CN1CCOCC1 102%, CCOC1=NC(C(=O)O)c2ccccc2/C(=C(/C)Cl)N1 (centres undefined) 105%, COc1ccc(O)c(-c2c(-c3ccc(Cl)cc3)n[nH]c2C)c1 104%, O=c1c2ccccc2c(-c2n[nH]c(=S)o2)nn1Cc1ccccc1 91%, O=C(NCc1ccccc1)c1ccc(S(=O)(=O)N2CCCc3ccccc32)cc1 107%, CC(=O)NC1C(=O)N=C(SCC(=O)NC(C)c2ccccc2)NC1=O (centres undefined) 102%, O=C(Oc1cccc(-n2cnnn2)c1)c1ccco1 103%, CCOc1nonc1C(=N)/C(C(C)=O)=C(\C)O 107%, COc1ccc(CC(=O)NNC(=O)Cc2ccc(OC)cc2)cc1 96%, CCOC(=O)CSc1nc(C)c(C(C)=O)cc1C#N 105%, CCOC(=O)c1cnc2c(-c3ccccc3)cnn2c1N 104%, COCCCNS(=O)(=O)c1ccc(SC)cc1 100%, Cc1ccc(Sc2nnc(-c3ccccc3)cc2C#N)cc1 279%, Brc1cc2c(cc1/C=N/Nc1nc(N3CCCC3)nc(N3CCOCC3)n1)OCO2 95%, COC(=O)c1ccc(C2/C(=C(/O)c3ccc(OC(C)C)cc3)C(=O)C(=O)N2c2cc(C)on2)cc1 (centres undefined) 96%, Cc1cccc(C(C)C)c1NC(=O)CSc1nncn1C 106%, O=C(Cn1cnc2cc([N+](=O)[O-])ccc2c1=O)NC1CCS(=O)(=O)C1 (centres undefined) 94%, O=C(CSc1nnc2ccccn12)Nc1ccccc1C(=O)O 120%, COc1cccc2c(=O)n(CC(=O)Nc3ccccc3F)ccc12 103%, COc1ccc(C(=O)CN2C(=O)c3ccccc3C2=O)c(OC)c1C 95%

GTP binding activity, active:
COCCn1c(N)c(C(=O)Nc2sc3c(c2C(=O)OC)CCCC3)c2nc3ccccc3nc21 63%, COc1cc(/C=N/Nc2nn3cnnc3c3ccccc23)ccc1O 62%

From PubChem BioAssay AID759 (NMMLSC, 2007)
